# Test results reported in PubChem BioAssay AID1460 (National Center for Advancing Translational Sciences (NCATS), 2008).
# Screen size: about 270,000 compounds; about 5,800 (2.1%) were called active. Inconclusive means that the source gave no clear call. Such entries were picked first, then a sample of the others. Calls follow the shape of the dose curve; as a rule, active = well fitted inhibition curve with a large enough effect; inconclusive = small, poorly fitted or top-dose-only effect; inactive = flat fitted curve, though single readings scatter. Potencies of inconclusive entries are doubtful fits and often do not repeat.
# Target: Microtubule-associated protein tau (Homo sapiens) (UniProt P10636)
# UniProt P10636, sequence (P10636 whole entry, looked up): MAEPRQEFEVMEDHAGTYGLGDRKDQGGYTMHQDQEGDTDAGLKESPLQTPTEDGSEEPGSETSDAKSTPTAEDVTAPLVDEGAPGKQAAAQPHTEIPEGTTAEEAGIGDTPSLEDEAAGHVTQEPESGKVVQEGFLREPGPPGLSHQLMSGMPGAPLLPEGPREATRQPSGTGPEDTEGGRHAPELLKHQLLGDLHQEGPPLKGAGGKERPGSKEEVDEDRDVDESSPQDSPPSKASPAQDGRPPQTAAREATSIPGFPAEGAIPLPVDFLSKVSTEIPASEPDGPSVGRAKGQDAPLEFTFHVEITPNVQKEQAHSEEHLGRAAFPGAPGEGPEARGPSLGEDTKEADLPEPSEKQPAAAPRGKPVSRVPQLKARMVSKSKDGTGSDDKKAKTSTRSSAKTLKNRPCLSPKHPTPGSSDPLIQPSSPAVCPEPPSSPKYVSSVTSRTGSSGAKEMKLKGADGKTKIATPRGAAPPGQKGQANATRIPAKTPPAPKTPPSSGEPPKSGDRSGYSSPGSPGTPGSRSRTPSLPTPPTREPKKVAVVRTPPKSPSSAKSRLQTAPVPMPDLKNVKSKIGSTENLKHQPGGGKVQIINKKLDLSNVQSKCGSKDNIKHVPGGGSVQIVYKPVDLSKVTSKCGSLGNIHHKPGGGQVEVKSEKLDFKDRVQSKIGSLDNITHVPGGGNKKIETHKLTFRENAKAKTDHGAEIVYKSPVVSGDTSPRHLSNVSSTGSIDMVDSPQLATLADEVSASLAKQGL
# Assay: qHTS for Inhibitors of Tau Fibril Formation, Thioflavin T Binding; also: nearly all actives have a fitted effect of over 55% in size
# Settings: recombinant tau K18 P301L (four-repeat tau fragment), heparin-induced fibrillization, ThT fluorescence; series mostly up to 57.4 µM; activity, negative = inhibition: at the top concentration
# Procedure, shortened: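 Heparin-induced fibrillization of the P301L-mutant K18 repeat-domain fragment of human tau was followed by ThT binding in quantitative high-throughput format.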
# % is scaled to controls: 0 for no effect and ±100 for the full control effect; potency is read from the fitted curve at half-maximal effect; tags tell the direction and shape of the fitted curve.
SMILES,"activity, negative = inhibition",Potency
CC(C)(C)c1ccc(CN2C(=O)CN=C(c3ccccc3)c3ccccc32)cc1,inactive: -11.3%,–
CC[C@H](C)[C@H](NC(=O)[C@H](CCCN=C(N)N)NC(=O)[C@H](CCCN=C(N)N)NC(=O)[C@H](CC(C)C)NC(=O)[C@H](Cc1ccccc1)NC(=O)CNC(=O)CNC(=O)[C@@H](N)Cc1ccc(O)cc1)C(=O)O,inactive: -6.2%,–
Oc1ccc2c3c1O[C@H]1c4[nH]c5ccccc5c4C[C@@]4(O)C(C2)N(CC2CC2)CC[C@]314,–,"inconclusive: 20 µM [inhibitor, partial curve]"
Cc1cccc(-n2c(O)c(C=NC34CN5CN(CN(C5)C3)C4)c(=O)[nH]c2=O)c1,–,"inconclusive: 20 µM [inhibitor, partial curve]"
COc1ccc(/C=C/C(=O)N2CC3C[C@@H](C2)Cn2c3cccc2=O)cc1OC,inactive: -11.1%,–
Cc1ccccc1CN1C(=O)C(C)N=C(c2ccccc2)c2ccccc21 (stereo not drawn),inactive: -1.53%,–
Nc1c2c(nc3sc4c(c13)CCCC4)CCCC2,–,"inconclusive: 20 µM [inhibitor, single point]"
O=C1CS[C@@H](c2ccccc2Cl)c2cc(Cl)ccc2N1,–,"inconclusive: 39.8 µM [inhibitor, partial curve]"
CC(C)=CCC[C@]1(C)[C@@H](CC=C(C)C)C[C@@]2(CC=C(C)C)C(=O)[C@]1(C(=O)C(C)C)C(=O)C(CC=C(C)C)=C2O,–,"inconclusive: 25.1 µM [inhibitor, partial curve]"
NC(=O)c1cn(C2OC(CO)C(O)C2O)c2ncnc(N)c12 (stereo not drawn),inactive: 2.7%,–
Cc1oc(-c2cccs2)nc1CSCC(=O)N1CCC2(CC1)OCCO2,–,"inconclusive: 0.0562 µM [inhibitor, full curve, poor fit]"
COCCN1Cc2cc(=O)n3c([nH]c4ccccc43)c2C1=N,–,"inconclusive: 39.8 µM [inhibitor, single point]"
CC(C(=O)c1c[nH]c2ccccc12)N1CCc2ccccc2C1 (stereo not drawn),–,"inconclusive: 22.4 µM [inhibitor, single point]"
Cc1ccc(C(=O)Nc2c(C(=O)Nc3ccc(C)c(C)c3)sc3nc(C)cc(C)c23)cc1,–,"inconclusive: 28.2 µM [inhibitor, single point]"
C=CCn1c(O)c(C(C)=Nc2ccc(N(C)C)cc2)c(=O)[nH]c1=O,–,active: 17.8 µM
CC(=O)C1=C(C)OC(N)=C(C(=O)OC(C)C)C12C(=O)Nc1ccccc12 (stereo not drawn),–,"inconclusive: 28.2 µM [inhibitor, partial curve, poor fit]"
CCn1ccnc1CN1CCCC(C(=O)c2cc(Cl)ccc2OC)C1 (stereo not drawn),–,"inconclusive: 6.31 µM [activator, single point]"
CC(=O)NC(Cc1ccc(N(CCCl)CCCl)cc1)C(=O)NC(C(=O)O)C(C)C (stereo not drawn),–,"inconclusive: 25.1 µM [inhibitor, single point]"
C[C@@H]1C[C@H]2OC(=O)C3(CO3)[C@H]2[C@H](O)[C@]2(C)C(=O)C3OC3[C@@H]12 (stereo partly drawn),–,"inconclusive: 10 µM [inhibitor, partial curve]"
Cc1ccc(Sc2ccc(C=C3C(=O)N(C)C(=O)N(C)C3=O)o2)cc1,–,"inconclusive: 0.251 µM [activator, full curve, poor fit]"
O=C1CC(c2cccnc2)=NN1c1ccccc1,–,"inconclusive: 2.82 µM [inhibitor, full curve]"

SMILES,"activity, negative = inhibition",Potency
Cc1cccc(Cn2cccc(C(=O)Nc3nnc(C)s3)c2=O)c1,inactive: -8.5%,–
Cc1cc(SCc2sc(-c3ccc(C(F)(F)F)c(F)c3)nc2C)ccc1OCC(=O)O,–,"inconclusive: 2.51 µM [inhibitor, partial curve, poor fit]"
CCC(C)(C)n1nnnc1C(c1cccs1)N1CC=C(c2ccc(F)cc2)CC1 (stereo not drawn),–,"inconclusive: 28.2 µM [inhibitor, single point]"
O=c1c2ccccc2nc(/C=C\c2ccccc2[N+](=O)[O-])n1-c1ccccc1O,inactive: -15.5%,–
Clc1ccc2c(c1)C(c1ccccc1Cl)=NCc1nnc(N3CCN(CCSc4ccccc4)CC3)n1-2,–,"inconclusive: 25.1 µM [inhibitor, single point]"
c1cc2c(cc1CCNC1CCCCCC1)OCO2,inactive: -5.27%,–
CCCCn1c(O)c(C(CC)=NCCN2CCOCC2)c(=O)[nH]c1=O,–,"inconclusive: 17.8 µM [inhibitor, single point]"
CCN(CC)c1ccc(N=Cc2c(O)n(-c3ccc(Cl)cc3)c(=O)[nH]c2=O)cc1,–,"inconclusive: 3.55 µM [inhibitor, full curve]"
Cn1cnc([N+](=O)[O-])c1Sc1ccc([N+](=O)[O-])cc1,–,"inconclusive: 14.1 µM [inhibitor, partial curve]"
CCOC(OCC)P(=O)(O)CCCN,–,inactive
OCCN1CCN(CCCN2c3ccccc3Sc3ccc(C(F)(F)F)cc32)CC1,–,"inconclusive: 31.6 µM [inhibitor, single point] [middle of 4 runs]"
Cc1cc(C)cc(N2C(=O)NC(=O)/C(=C\C=C\c3ccco3)C2=O)c1,–,active: 12.6 µM
CCOC(=O)C1=C(CN2CCN(c3ccc(C)cc3C)CC2)NC(=O)NC1c1ccc(OC)cc1 (stereo not drawn),–,"inconclusive: 14.1 µM [inhibitor, partial curve]"
O=C(Oc1ccc2cc(Br)ccc2c1)N1CCCCCC1,–,"inconclusive: 25.1 µM [inhibitor, single point]"
Cc1cc(N2CCOCC2)ccc1/C=C1\C(=O)NC(=O)N(c2ccccc2)C1=O,–,"inconclusive: 8.91 µM [inhibitor, full curve]"
O=C(Nc1ccc2c(c1)OCCO2)c1cccn(Cc2ccccc2)c1=O,–,"inconclusive: 31.6 µM [inhibitor, single point]"
Cc1c(N=Nc2c(O)[nH]c(=O)[nH]c2=O)c(=O)n(-c2ccccc2)n1C,–,"inconclusive: 31.6 µM [inhibitor, partial curve]"
CN1CCc2nc(SCc3cccc(Br)c3)c(C#N)cc2C1,–,"inconclusive: 31.6 µM [inhibitor, partial curve, poor fit]"
O=c1[nH]c(=S)n(CCC2=CCCCC2)c(O)c1C=NCc1cccnc1,inactive: -3.31%,–
CCOC(=O)C1=C(C)OC(N)=C(C(=O)OCC)[C@@]12C(=O)N(CC(N)=O)c1ccccc12,–,"inconclusive: 20 µM [inhibitor, partial curve]"
CCOC(=O)c1c(NC(NC(=O)CF)C(Cl)(Cl)Cl)sc2c1CCCC2 (stereo not drawn),–,"inconclusive: 10 µM [inhibitor, partial curve]"

SMILES,"activity, negative = inhibition",Potency
Cc1ccc(C)c(NC(=O)CSc2nnc([C@@H](N)Cc3c[nH]c4ccccc34)o2)c1,–,"inconclusive: 17.8 µM [inhibitor, partial curve]"
Cc1ccc(Cl)cc1N1CCN(C(=O)c2cn(C)c(=O)c3c2c2ccccc2n3C)CC1,–,"inconclusive: 1.12 µM [inhibitor, partial curve, poor fit]"
OC(Cc1ccccc1)(c1ccccc1)C1CN2CCC1CC2 (stereo not drawn),–,"inconclusive: 44.7 µM [inhibitor, single point]"
O=c1c2ccccc2nc(CN2CCCCCC2)n1-c1ccc(F)cc1,inactive: -12.2%,–
C[C@@H](CO)NC(=O)[C@@H]1C=C2c3cccc4[nH]cc(c34)C[C@H]2N(C)C1,–,"inconclusive: 25.1 µM [inhibitor, partial curve]"
Oc1ccc2c3c1OC1C(O)CC[C@@]4(O)[C@@H](C2)N(CC2CCC2)CC[C@]314 (stereo partly drawn),inactive: -6.4%,–
CCn1cc(/C=c2/sc3n(c2=O)C2c4ccccc4OC(C)(N=3)C2C(=O)OC)c(C)n1 (stereo not drawn),–,"inconclusive: 3.98 µM [inhibitor, single point]"
O=[N+]([O-])c1ccc(N2CCCC2)c2ncccc12,–,"inconclusive: 2 µM [inhibitor, full curve]"
CN1CCN(C(=O)OC2c3nccnc3C(=O)N2c2ccc(Cl)cn2)CC1 (stereo not drawn),–,"inconclusive: 0.891 µM [inhibitor, single point]"
O=c1[nH]c(=S)n(Cc2ccc(F)cc2)c(O)c1C=NCC1CCCO1 (stereo not drawn),inactive: -1.68%,–
C=CCOC(=O)COc1cc(C)cc2oc(=O)c3c(c12)CCC3,inactive: -10.8%,–
CCN1CCN(c2cc(N3CCCC3)c([N+](=O)[O-])cc2F)CC1,–,"inconclusive: 20 µM [inhibitor, partial curve]"
C[C@H]1C2Cc3ccc(O)cc3[C@]1(C)CCN2CC1CC1,inactive: -6.22%,–
COC(=O)c1ccccc1NC(=O)c1cccn(Cc2cccc(Cl)c2)c1=O,–,"inconclusive: 15.8 µM [inhibitor, partial curve, poor fit]"
N#Cc1c(Cl)nc(Cl)c2c1CCN(Cc1ccccc1)C2,–,"inconclusive: 31.6 µM [inhibitor, single point]"
C=CCN1C(=O)NC(=O)/C(=C/c2ccc(OC)c(COc3ccc(NC(C)=O)cc3)c2)C1=O,–,"inconclusive: 15.8 µM [inhibitor, partial curve]"
COCCCn1c(N)c(C(=O)Nc2sc3c(c2C(=O)OC)CCCC3)c2nc3ccccc3nc21,–,"inconclusive: 28.2 µM [inhibitor, partial curve]"
CC/C(=C\C=C\[C@@H]1C=C[C@@H]2CCC[C@H]2[C@@H]1C(=O)c1ccc[nH]1)[C@@H]1O[C@@H]([C@@H](C)C(=O)O)CC[C@@H]1C,–,"inconclusive: 25.1 µM [inhibitor, partial curve]"
NCCc1c[nH]c2ccccc12,–,inactive
CC(C)C(C)/C=C/C(C)C1CCC2C3=CC=C4CC(O)CCC4(C)C3CCC21C (stereo not drawn),–,"inconclusive: 17.8 µM [inhibitor, partial curve]"
Cc1cc(C=C2C(=O)N(C)C(=O)N(C)C2=O)c(C)n1-c1ccccc1,–,"inconclusive: 25.1 µM [inhibitor, partial curve]"
